Measured values reported in PubChem BioAssay AID588342 (National Center for Advancing Translational Sciences (NCATS), 2011).
Out of some 360,000 compounds screened, about 25,000 (6.9%) were called active. The shares of active, inactive and inconclusive entries below differ from those in the screen. The call rests on the fitted dose curve; in most records, active means well fitted inhibition curve with a large enough effect; inconclusive means small, poorly fitted or top-dose-only effect; inactive means flat fitted curve, though single readings scatter. Potencies of inconclusive entries are doubtful fits and often do not repeat.
Further: nearly all actives have a fitted effect of over 55% in size.
Potency means the concentration at half of the fitted maximal effect; tags describe the fitted curve by direction and shape.

The molecules below were run against Luciferin 4-monooxygenase (Photinus pyralis) (UniProt P08659) (assay: qHTS profiling assay for firefly luciferase inhibitor/activator using purifed enzyme and Km concentrations of substrates (counterscreen for miR-21 project)). Details: purified FLuc, luminescence inhibition; series mostly up to 57.5 µM.
UniProt P08659, sequence (P08659 whole entry, looked up): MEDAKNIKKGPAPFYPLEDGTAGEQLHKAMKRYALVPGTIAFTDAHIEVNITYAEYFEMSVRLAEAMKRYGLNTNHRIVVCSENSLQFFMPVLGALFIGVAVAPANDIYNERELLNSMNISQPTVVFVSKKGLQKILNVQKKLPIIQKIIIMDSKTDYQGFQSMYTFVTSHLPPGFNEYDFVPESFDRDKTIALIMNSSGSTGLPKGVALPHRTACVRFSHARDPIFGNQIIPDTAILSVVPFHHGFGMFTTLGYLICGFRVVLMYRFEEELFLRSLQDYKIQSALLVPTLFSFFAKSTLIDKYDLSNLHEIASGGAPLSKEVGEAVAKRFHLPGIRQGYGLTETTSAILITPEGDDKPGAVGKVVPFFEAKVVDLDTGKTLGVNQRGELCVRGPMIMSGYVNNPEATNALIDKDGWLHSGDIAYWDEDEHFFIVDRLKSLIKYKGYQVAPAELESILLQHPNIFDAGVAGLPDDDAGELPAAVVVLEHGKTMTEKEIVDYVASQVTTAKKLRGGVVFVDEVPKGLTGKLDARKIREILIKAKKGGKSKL
Method in brief: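 Biochemical qHTS of compounds, final roughly 60 µM downward over six points, against 10 nM purified firefly luciferase using Km concentrations of substrates (10 uM D-luciferin, 10 uM ATP) in Tris acetate pH 7.5 buffer; luminescence output.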
`O=C(Nc1ccc2nc(SCc3ccccc3)sc2c1)c1ccccc1F` was tested, and the Potency was inconclusive: 9.53 µM [inhibitor, partial curve, poor fit].
With `COc1ccc(OC)c(S(=O)(=O)N/N=C\c2ccc3c(c2)OCO3)c1` the Potency was active: 9.53 µM.
In the case of `CCC(=O)C1CCCN(C(=O)c2ccc3nc(-c4cccc(OC)c4)oc3c2)C1` (configuration not stated), the Potency is reported as active: 8.49 µM.
For `CC1CCN(S(=O)(=O)c2ccc3c(c2)C(=NO)c2cc(S(=O)(=O)N4CCC(C)CC4)ccc2-3)CC1`, the Potency was “inactive”.
For `COc1ccccc1OC(=O)c1ccc(SC)cc1OC`, the Potency was inconclusive: 19 µM [inhibitor, single point].
In the case of `Cc1ccnc(NC(=O)C2CC(=O)N(c3ccc4c(c3)OCCO4)C2)c1` (configuration not stated), the Potency is reported as active: 4.78 µM.
`Cc1[nH]c2ccccc2c1/C=N/Nc1ccc(F)cc1F` was tested, and the Potency was inconclusive: 37.9 µM [inhibitor, single point].
For `O=C(NCc1ccco1)c1cc(NS(=O)(=O)c2cccc([N+](=O)[O-])c2)ccc1O`, the Potency was inconclusive: 33.8 µM [inhibitor, single point].
In the case of `Cc1cc2nn(-c3ccc(F)cc3)nc2cc1NC(=O)c1cccc2ccccc12`, the Potency is reported as “inactive”.
`CCOc1ccccc1OC(C)C(=O)Nc1ccc(S(=O)(=O)N2CCCC2)cc1` (configuration not stated) was tested, and the Potency was “inactive”.
In the case of `CCN(CC)CC#CCC(OC)(c1ccccc1)c1ccccc1`, the Potency is reported as “inactive”.
For `CCSc1nnc2ccc(-c3ccc(C)cc3)nn12`, the Potency was inconclusive: 16.9 µM [inhibitor, partial curve].
`O=C(CN1C(=O)/C(=C/c2ccccc2Cl)SC1=S)NC1C=CS(=O)(=O)C1` (configuration not stated) was tested, and the Potency was inconclusive: 30.1 µM [inhibitor, partial curve, poor fit].
In the case of `Cc1ccc(SCC(=O)N2CCOCC2)cc1`, the Potency is reported as inconclusive: 16.9 µM [inhibitor, single point].
For `Cc1cc(C)cc(NC(=O)CSc2oc(-c3cccs3)nc2S(=O)(=O)c2ccccc2)c1`, the Potency was “inactive”.
`O=C(NCc1ccco1)c1cccc(Br)c1` was tested, and the Potency was inconclusive: 37.9 µM [inhibitor, partial curve, poor fit].
With `N#CNC(=Nc1ccc(F)cc1)SCc1ccccc1` the Potency was “inactive”.
With `O=C(N/N=C/c1coc2ccccc2c1=O)c1cc(Br)c(O)c(Br)c1` the Potency was inconclusive: 30.1 µM [inhibitor, partial curve, poor fit].
With `S=C(c1ccc(-c2cc(Cl)ccc2Cl)o1)N1CCOCC1` the Potency was inconclusive: 23.9 µM [inhibitor, single point].
For `COc1cc(C(=O)Nc2ccc(S(=O)(=O)N(C)c3ccccc3)cc2)cc(OC)c1OC`, the Potency was “inactive”.
In the case of `COc1cccc(-c2coc3c(C)c4oc(=O)c(CC(=O)O)c(C)c4cc23)c1`, the Potency is reported as inconclusive: 37.9 µM [inhibitor, single point].
With `Cn1c(N)c(C(=O)COC(=O)CCOc2ccc(C(C)(C)C)cc2)c(=O)n(C)c1=O` the Potency was active: 21.3 µM.
With `CCOc1ccc(C(=O)N/N=C/c2cccc3cccnc23)cc1` the Potency was active: 6.75 µM.
`CC(C)[C@H](NC(=O)c1ccccc1)C(=O)OCC(=O)N1CCc2ccccc2C1` was tested, and the Potency was inconclusive: 19 µM [inhibitor, partial curve].
In the case of `Cc1ccc(F)c(N=Cc2c(O)c3ccccc3oc2=O)c1`, the Potency is reported as inconclusive: 2.39 µM [inhibitor, full curve].
In the case of `CS(=O)(=O)N1CCN(C(=O)c2cc(-c3cccnc3)nc3ccc(Cl)cc23)CC1`, the Potency is reported as “inactive”.
For `CCc1ccccc1NC(=O)Nc1cccc(F)c1`, the Potency was inconclusive: 23.9 µM [inhibitor, partial curve, poor fit].
`O=C(NCc1ccco1)C1CCN(c2nnc(-n3cccc3)s2)CC1` was tested, and the Potency was inconclusive: 15.1 µM [inhibitor, partial curve, poor fit].
With `Cn1c2c(c3ccccc31)CCSC2=O` the Potency was “inactive”.
With `CCCCCCCc1c(O)nc(SCCN2CCOCC2)[nH]c1=O` the Potency was “inactive”.
With `O=C(Nc1ccc2c(c1)nc1n2CCCCC1)c1cc(S(=O)(=O)N2CCOCC2)ccc1Cl` the Potency was inconclusive: 23.9 µM [inhibitor, single point].
In the case of `CCOC(=O)c1cc(S(=O)(=O)N2CCN(c3cc(C)ccc3C)CC2)[nH]n1`, the Potency is reported as inconclusive: 19 µM [inhibitor, partial curve, poor fit].
`CCC1CCCCN1C(=S)Nc1ccc(C(C)=O)cc1` (configuration not stated) was tested, and the Potency was inconclusive: 19 µM [inhibitor, partial curve].
With `COc1ccc(C(=O)NC(=S)Nc2nc(C)c(C(=O)N(C)C)s2)cc1` the Potency was inconclusive: 30.1 µM [inhibitor, partial curve, poor fit].
`O=C(N/N=C/c1cccnc1)c1cccc(NC(=O)c2cccc(Br)c2)c1` was tested, and the Potency was inconclusive: 21.3 µM [inhibitor, partial curve].
With `CSC1=NCCN1C(=O)c1ccc(C)cc1` the Potency was inconclusive: 26.9 µM [inhibitor, partial curve, poor fit].
In the case of `COCCNC(=O)Cc1c(C)c2cc3c(cc2oc1=O)OC(C)(C)CC3`, the Potency is reported as inconclusive: 42.6 µM [inhibitor, partial curve, poor fit].
For `COc1ccc(NC(=S)NC(=O)C2CCC2)cc1`, the Potency was active: 16.9 µM.
With `O=C(Cn1ccc2cc(S(=O)(=O)N3CCCCC3)ccc21)NCCc1ccc(Cl)cc1` the Potency was “inactive”.
`CCc1nnc(NC(=O)C2CCCN(S(=O)(=O)c3ccc(OC)cc3)C2)s1` (configuration not stated) was tested, and the Potency was active: 19 µM.
In the case of `COc1cc(NC(=O)c2cc(CC(C)C)on2)c(OC)cc1Cl`, the Potency is reported as “inactive”.
In the case of `COc1ccccc1N1CCN(S(=O)(=O)c2c(C)sc3ncn(CC(=O)Nc4ccc(C(F)(F)F)cc4)c(=O)c23)CC1`, the Potency is reported as “inactive”.
With `Cc1nn2cc(-c3cccc(Cl)c3)cnc2c1Br` the Potency was inconclusive: 7.57 µM [inhibitor, partial curve, poor fit].
`O=C(CNC(=O)c1ccccc1)NCC(=O)OCC(=O)c1ccccc1` was tested, and the Potency was “inactive”.
`O=C(CS(=O)(=O)c1cccc2nsnc12)NCc1ccc(Cl)cc1` was tested, and the Potency was “inactive”.
`Cc1cc2ncn(/N=C/c3ccc4c(c3)OCO4)c2cc1C` was tested, and the Potency was inconclusive: 10.7 µM [inhibitor, partial curve, poor fit].
With `O=C(Nc1ccc(OC(F)(F)F)cc1)c1ccc2ccccc2n1` the Potency was inconclusive: 15.1 µM [inhibitor, partial curve].
